# The campaign covered roughly 360,000 compounds. About 780 (0.22%) were called active. Rule as the data show it: active = inhibition above about 8.5% (passing the limit was not always enough); inconclusive = no clear call, values can overlap the other calls. The inconclusive results got no clear call from the source.
# Tested on: Mycobacterium tuberculosis FadD28 fatty-acid-AMP ligase
# Assay: inhibitors of FadD28 bisubstrate probe binding, primary screen, biochemical, fluorescence polarization, single point (AID 588549)
# Conditions: at 12.5 µM, stronger effect = higher value
row,SMILES,inhibition
1,Cc1cccc(S(=O)(=O)Nc2nc3ccccc3nc2Nc2cccc(C(=O)O)c2)c1,inconclusive: 6.58%
